Laboratory results as given in PubChem BioAssay AID662 (National Center for Advancing Translational Sciences (NCATS), 2007).
Out of some 71,000 compounds screened, about 1,800 (2.5%) were called active. The shares of active, inactive and inconclusive entries below differ from those in the screen. Calls follow the shape of the dose curve; as a rule, active = well fitted activation curve with a large enough effect in the signal ratio, with a control signal flat (not every such curve was filed as active); inconclusive = small, poorly fitted or top-dose-only effect, or effect the other way, or a change in a side signal; inactive = flat fitted curve, though single readings scatter; the % refers to the signal ratio. A potency beside an inconclusive call is a rough fit, not a confirmed value.

Assay: Cell signaling CRE-BLA (Fsk stim); as to activity change, negative = inhibition: % of control where 0% means no effect
Details: CHO CRE-bla reporter (cAMP response element driving beta-lactamase), forskolin EC10, beta-lactamase ratio
Method in brief: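 The 460nm/530nm emission ratio after CCF4 loading defined %Activity, from which AC50 values were obtained. CRE-bla CHO cells received compound dilution series together with an EC10 level of NKH 477 for 3 hours at 37 degrees Celsius.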

[1] = activity change, negative = inhibition: at 38.2 µM (top of the series) unless noted
Potency is read from the fitted curve at half-maximal effect; tags tell the direction and shape of the fitted curve.

SMILES: COc1ccc(OC)c(NC(=O)c2cc(S(=O)(=O)NCc3ccco3)ccc2F)c1
- Potency [1]: inconclusive: 12.6 µM [rising, single point]

SMILES: N#Cc1cccc(NC(=O)N2CC[C@@]3(CCCNC3)C2)c1
- Potency [1]: inactive

SMILES: Cn1c(=O)c2c(-c3ccccc3)n(CCCN3CCOCC3)cc2n(C)c1=O
- Potency [1]: inconclusive: 10 µM [rising, single point]

SMILES: Clc1ccc(CCNc2ncnc3nc[nH]c23)cc1
- Potency [1]: inconclusive: 10 µM [rising, partial curve]

SMILES: CCCC[C@@H]1C[C@H]1C(NC(=O)c1ccco1)c1ccccc1C(F)(F)F (some centres undefined)
- Potency [1]: inactive

SMILES: CCCc1ncc(C[n+]2ccccc2C)c(N)n1
- Potency [1]: inactive

SMILES: OC(COCC1COc2ccccc2O1)CN1CCc2ccccc2C1 (centres undefined)
- Potency [1]: inactive

SMILES: COc1ccccc1-c1cn[nH]c(=S)n1
- Potency [1]: inconclusive: 20 µM [rising, single point]

SMILES: c1ccc(-c2nnc3sc(-c4csc5c4CCCC5)nn23)cc1
- Potency [1]: inconclusive: 10 µM [rising, partial curve]

SMILES: COc1ccc(Cc2noc(-c3ccc(OC)c(OC)c3)n2)cc1OC
- Potency [1]: inconclusive: 12.6 µM [rising, partial curve]

SMILES: CCc1ccc2oc(-c3cc(N)ccc3Cl)nc2c1
- Potency [1]: inactive

SMILES: COc1ccc(CCCC(=O)O)c(C)c1
- Potency [1]: inactive

SMILES: CN1Cc2sc(N)c(C#N)c2CC1(C)C
- Potency [1]: active: 10 µM

SMILES: CN(Cc1ccccc1)c1oc(-c2ccco2)nc1C#N
- Potency [1]: inconclusive: 10 µM [rising, partial curve]

SMILES: c1ccc(C2C3=C(CCCC3)Nc3ncnn32)cc1 (centres undefined)
- Potency [1]: inactive

SMILES: COc1ccc(-c2cc(C(F)(F)F)nc(S(=O)(=O)CCC(=O)N3CCOCC3)n2)cc1
- activity change, negative = inhibition [1]: inconclusive: -12.7%

SMILES: Cc1cc(N2CCN(C(=O)c3ccco3)CC2)n2ncc(-c3ccccc3)c2n1
- Potency [1]: inconclusive: 25.1 µM [rising, single point]

SMILES: N#CCCn1cc(/C=N/O)c(-c2ccc(-c3ccccc3)cc2)n1
- Potency [1]: inconclusive: 12.6 µM [rising, single point]

SMILES: Cc1ccc(-c2noc(CCC(=O)Nc3ccccc3C)n2)cc1
- Potency [1]: inactive

SMILES: CN1Cc2c(C(=O)OC(C)(C)C)ncn2-c2ccsc2C1=O
- Potency [1]: inactive

SMILES: C=CCn1c(SCC(=O)NCCOC)nc2scc(-c3ccco3)c2c1=O
- Potency [1]: inactive

SMILES: COc1cc(CO)cc(Br)c1OCc1cccnc1
- activity change, negative = inhibition [1]: inconclusive: 18.8%

SMILES: CCc1nc(C)cn1S(=O)(=O)c1cc(C)c(OC)cc1C
- Potency [1]: inconclusive: 12.6 µM [rising, partial curve]

SMILES: CN1CCN(CCC(=O)Nc2ccc(OCc3ccccc3)cc2)CC1
- Potency [1]: inconclusive: 3.16 µM [falling, single point]

SMILES: CCN(CC)S(=O)(=O)c1cccc(C(=O)Nc2nncs2)c1
- Potency [1]: inactive

SMILES: Cc1cccc(Cc2c(C)nc3c(C(=O)NCc4ccco4)cnn3c2C)c1
- Potency [1]: inactive

SMILES: CCN(CC)c1nc2ccccc2nc1C(C#N)C(=O)NCCCOC (centres undefined)
- Potency [1]: active: 6.31 µM

SMILES: COc1ccc(CNC(=O)C2CCN(C(=O)[C@@H](CC(C)C)NC(=O)OC(C)(C)C)CC2)cc1
- activity change, negative = inhibition [1]: inconclusive: 3.68%

SMILES: Cc1nc2c(C(=O)NCc3ccco3)cnn2c(C)c1Cc1ccc(F)cc1Cl
- Potency [1]: inconclusive: 3.16 µM [rising, full curve, poor fit]

SMILES: COCCN1C(=O)c2oc3ccccc3c(=O)c2C1c1ccc(O)c(OC)c1 (centres undefined)
- Potency [1]: inconclusive: 10 µM [rising, single point]

SMILES: COC(=O)[C@@]1(Cc2ccc(F)cc2)[C@H]2c3cc(C(=O)N(C)C)n(Cc4ccc(OC)c(OC)c4)c3C[C@H]2CN1C(=O)c1ccccc1
- activity change, negative = inhibition [1]: inconclusive: 23.7%

SMILES: CC1CC(C)CN(c2nc3c(c(=O)n(C)c(=O)n3C)n2C)C1 (centres undefined)
- Potency [1]: inactive

SMILES: Cc1ccc(NC(=O)CNc2cccc(C)c2C)c(C)c1
- Potency [1]: inconclusive: 3.98 µM [rising, single point]

SMILES: Cc1ccc(-n2ncc3c(=O)[nH]c(SCC(=O)N4CCCc5ccccc54)nc32)cc1
- Potency [1]: inconclusive: 1.58 µM [rising, full curve, poor fit]

SMILES: Cc1ccc(NC(=O)C(C)N2C(=O)c3ccccc3C2=O)cc1 (centres undefined)
- Potency [1]: inactive

SMILES: N#C/C(=C\c1ccc(O)c(O)c1)C(=O)Nc1ccccc1
- activity change, negative = inhibition [1]: inconclusive: 16.2%
- activity change, negative = inhibition (at 38.2 µM (top of the series)): inactive: -11.8%

SMILES: Cc1ccc(C)c(CSc2nnc(-c3cccnc3)o2)c1
- activity change, negative = inhibition [1]: inconclusive: 26.4%

SMILES: COc1ccc(CCNc2nnc(Sc3nnnn3-c3ccccc3)s2)cc1OC
- Potency [1]: active: 10 µM

SMILES: COc1ccccc1NC(=O)Cn1cnc2c(oc3ccccc32)c1=O
- Potency [1]: inconclusive: 12.6 µM [rising, partial curve]

SMILES: CC1CN(C(=O)CCn2c(=O)oc3ccccc32)CC(C)O1 (centres undefined)
- Potency [1]: inactive

SMILES: N#Cc1cc2c(=O)n3ccccc3nc2n(Cc2cccnc2)c1=N
- Potency [1]: inactive

SMILES: CCC1CCCCN1S(=O)(=O)c1ccc(C(=O)Nc2nnc(-c3cccs3)o2)cc1 (centres undefined)
- activity change, negative = inhibition [1]: inconclusive: -20.5%

SMILES: Cc1ccc(Cl)cc1N1CCN(C(=O)c2cn(C)c(=O)c3c2c2ccccc2n3C)CC1
- activity change, negative = inhibition [1]: inconclusive: 30%

SMILES: CCCCCn1c(CN2CCN(C(=O)OCC)CC2)nc2c1c(=O)[nH]c(=O)n2C
- activity change, negative = inhibition [1]: inconclusive: 6.48%

SMILES: COC(=O)c1ccccc1NC(=O)COc1ccc(S(=O)(=O)N2CCCC2)cc1C
- Potency [1]: inconclusive: 3.16 µM [rising, single point]

SMILES: COc1ccc(Cl)cc1-c1nc(-c2ccncc2)no1
- Potency [1]: inactive

SMILES: O=C1NCCCC1C(=O)N1CCN(C(c2ccccc2)c2ccccc2)CC1 (centres undefined)
- Potency [1]: inconclusive: 0.0501 µM [rising, single point]

SMILES: CCC(CC)C(=O)NCCNC(=O)C(CC)CC
- Potency [1]: active: 2 µM

SMILES: CCCc1nc(SCC(=O)Nc2cc(Cl)ccc2OC)c2c(=O)n(C)c(=O)n(C)c2n1
- Potency [1]: inconclusive: 3.16 µM [rising, single point]

SMILES: Brc1c(CSc2nc3ccccc3o2)nc2ncccn12
- Potency [1]: inconclusive: 10 µM [rising, partial curve]

SMILES: Fc1cccc(Cl)c1CSc1nnc(COc2cccc3cccnc23)o1
- Potency [1]: inactive

SMILES: O=C(CN1CCN(Cc2ccccc2)CC1)N1CCCc2c1c(=O)oc1ccc(O)cc21
- Potency [1]: inactive

SMILES: CCc1nnc(NC(=O)CSc2nc3ccccc3s2)s1
- activity change, negative = inhibition [1]: inconclusive: 2.22%
